Where “and” joins values, the source holds several entries; their conditions need not be identical. Identical values can stand only once. In all, about 420,000 compounds went through this assay and about 50,000 (12%) were called active. Inconclusive results, whose numbers are uncertain, are shown with a selection of clear calls. Calls follow the shape of the dose curve; as a rule, active = well fitted inhibition curve with a large enough effect; inconclusive = small, poorly fitted or top-dose-only effect; inactive = flat fitted curve, though single readings scatter. A potency beside an inconclusive call is a rough fit, not a confirmed value.
assay: qHTS for Inhibitors of human tyrosyl-DNA phosphodiesterase 1 (TDP1): qHTS in cells in presence of CPT; conditions: chicken DT40 Tdp1-/-;hTDP1 cells + 20 nM CPT, ATP luminescence, 48 h; series mostly up to 46.2 µM; also: nearly all actives have a fitted effect of over 55% in size
Outline: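 Chicken DT40 Tdp1-/- cells complemented with human TDP1, 400 cells/well, exposed to compounds plus 20 nM camptothecin for at least 48 h at 37 C; viability read as ATP content by CellTiter-Glo luminescence.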
Potency is read from the fitted curve at half-maximal effect; tags tell the direction and shape of the fitted curve.

| SMILES | Potency |
| --- | --- |
| CCC1Nc2ncnc(N3CCN(c4ccccc4)CC3)c2N(Cc2ccc(Cl)cc2)C1=O (configuration not stated) | inconclusive: 16.4 µM [inhibitor, single point] |
| COc1cc(Cl)nn(-c2ccccc2)c1=O | inconclusive: 0.0058 µM [inhibitor, full curve, poor fit] |
| CCc1ccc(CN2C(=O)CCC2(C)C(=O)NC2CCCC2)cc1 (configuration not stated) | inconclusive: 25.9 µM [inhibitor, single point] |
| CCOC(=O)c1c(-c2ccccc2)cn2ccccc12 | inconclusive: 29.1 µM [inhibitor, single point] |
| CCn1c(CCCOc2ccc(Cl)cc2Cl)n[nH]c1=S | inconclusive: 32.6 µM [inhibitor, partial curve, poor fit] |
| COCCCN(C(=S)Nc1cc(Cl)cc(Cl)c1)C(C)c1ccccn1 (configuration not stated) | inconclusive: 18.4 µM [inhibitor, single point] |
| COc1ccccc1S(=O)Cc1ccc(C(=O)NCCc2ccc(Cl)cc2)o1 (configuration not stated) | inconclusive: 20.6 µM [inhibitor, single point] |
| CCCCNC(=O)c1ccc2c(c1)N(Cc1ccc(F)cc1)C(=O)c1ccccc1S2=O (configuration not stated) | active: 23.1 µM |
| COc1cccc(-n2ccnc2SCC(=O)Nc2c(C)cc(C)cc2C)c1 | inconclusive: 25.9 µM [inhibitor, single point] |
| CCn1c(=NC(=O)C2COc3ccccc3O2)sc2c(C)ccc(OC)c21 (configuration not stated) | active: 20.6 µM |
| Cc1cc(C)c(NC(=O)Cn2c(=O)c3cccn3c3ccccc32)c(C)c1 | inconclusive: 14.6 µM [inhibitor, partial curve] |
| O=C(/C=C/c1cccc([N+](=O)[O-])c1)Nc1cccc(NC(=O)c2ccco2)c1 | inconclusive: 20.6 µM [inhibitor, partial curve, poor fit] |
| CCOC(=O)N1CCN(C(=O)c2ccc3c(=O)n(-c4ccccc4F)c(=S)[nH]c3c2)CC1 | inactive |
| CC1=C(C(=O)N2CCCCCC2)CC(CC(=O)NC2CCCC2)C(=O)N1Cc1ccc(C(C)(C)C)cc1 (configuration not stated) | inconclusive: 20.6 µM [inhibitor, single point] |
| N#CC(C(=O)c1ccccc1Cl)=C1SCCCS1 | inconclusive: 23.1 µM [inhibitor, single point] |
| COC(c1ccccc1)c1nnc(CCC(=O)N2CCN(CCOc3ccccc3)CC2)o1 (configuration not stated) | inconclusive: 32.6 µM [inhibitor, single point] |
| O=C1CC(C(=O)N(CC2CCCO2)C(C(=O)NC2CCCCC2)c2ccncc2)CS1 (configuration not stated) | inactive |
| CCn1c(=O)c2c(n3cnnc13)-c1ccccc1CC21CCCCC1 | active: 13 µM |
| O=c1[nH][nH]c2c1[C@H](c1ccc(Cl)cc1)O[C@H](C1CC1)C2 | inconclusive: 11.6 µM [inhibitor, partial curve] |
| CCC(=O)N1N=C(c2ccc(NS(=O)(=O)c3ccccc3)cc2)CC1c1ccco1 (configuration not stated) | inconclusive: 29.1 µM [inhibitor, single point] |
| COCCCNC(=O)c1cc(Nc2ccc(OC)cc2OC)nc2ccccc12 | inconclusive: 18.4 µM [inhibitor, single point] |

| SMILES | Potency |
| --- | --- |
| O=C(Nc1ccc(N2CCOCC2)cc1)C1CC(O)CN1S(=O)(=O)c1ccc(Cl)cc1 (configuration not stated) | inactive |
| COCCNC(=O)C1(C)CCCN(C(=O)c2cccc(C(F)(F)F)c2)C1 (configuration not stated) | inactive |
| Cc1cc(/C=C2\SC(=Nc3ccc(N4CCOCC4)cc3)N(C)C2=O)c(C)n1-c1cccnc1 | inactive |
| Cc1ccc2cccc(Oc3ncnc4scc(-c5ccccc5)c34)c2n1 | inconclusive: 29.1 µM [inhibitor, single point] |
| O=C1CC[C@@H]2C[C@@]3(C[C@@H]4CCN1[C@H]24)Nc1cc([N+](=O)[O-])ccc1NC3=NCc1ccccc1 | inactive and inconclusive: 31.6 µM [inhibitor, single point] |
| O=C(Nn1c(SCc2cccc([N+](=O)[O-])c2)nc2ccccc2c1=O)c1ccccc1 | inactive |
| CCOC(=O)c1cccc(NC(=O)CSc2nnc(CNc3ccc(C)cc3)n2CC)c1 | inconclusive: 29.1 µM [inhibitor, single point] |
| COc1cccc(C(=O)Nc2cccc(-c3ccc4nncn4n3)c2)c1OC | inconclusive: 18.4 µM [inhibitor, single point] |
| CC(C)CC1C(=O)N(Cc2cn(Cc3ccco3)nn2)CCS(=O)(=O)N1Cc1ccc(-c2ccccc2)cc1 (configuration not stated) | active: 14.6 µM |
| CCc1ccc(N2CC(C(=O)Nc3ccc(S(=O)(=O)N4CCCCC4)cc3)CC2=O)cc1 (configuration not stated) | inconclusive: 16.4 µM [inhibitor, single point] |
| Cc1nn(Cc2ccc(C(=O)N3CCCC3)o2)c(C)c1[N+](=O)[O-] | inactive |
| COc1ccc(NC(=O)C2Cc3c(-c4ccccc4Oc4ccccc4)ccnc3O2)cc1 (configuration not stated) | inconclusive: 18.4 µM [inhibitor, single point] |
| COc1ccccc1-c1nc(NCCc2cnc[nH]2)c2ccccc2n1 | inconclusive: 29.1 µM [inhibitor, single point] |
| COc1cccc(Cn2c(=O)c(CCc3ccccc3)nc3cnc(N(C)C)nc32)c1 | inactive |
| CCOC(=O)CSc1nc2ccccc2c(=O)n1CCC(=O)NCCc1ccc(OC)c(OC)c1 | inactive |
| COc1ccc(CNC(=O)C2CCN(S(=O)(=O)c3c(C)noc3/C=C/c3ccccc3F)CC2)cc1 | inconclusive: 29.1 µM [inhibitor, single point] |
| O=C1CC(C(=O)N2CCc3ccccc32)CN1c1cccc(C(F)(F)F)c1 (configuration not stated) | inactive |
| Cc1nn(-c2ccccc2)c2sc(C(=O)N(CC(=O)NC(C)(C)C)Cc3ccco3)cc12 | inconclusive: 29.1 µM [inhibitor, single point] |
| COc1ccc(Cn2ccc3nc(C)c(C(=O)Nc4ccc(OC)cc4)cc3c2=O)cc1 | inactive |
| CCN1C(=O)[C@H]2[C@H]3CN=C(SCc4ccc(C)cc4)N3[C@@](CC)(C(=O)OC)[C@H]2C1=O | inconclusive: 16.4 µM [inhibitor, single point] |
| COc1ccccc1NC(=O)CSc1c2c(nc3ccccc13)CCC2 | inconclusive: 20.6 µM [inhibitor, single point] |

Reference: PubChem BioAssay AID686979 (National Center for Advancing Translational Sciences (NCATS), 2013)
